# Experimental data: PubChem BioAssay AID652106 (National Center for Advancing Translational Sciences (NCATS), 2013)
# Out of some 370,000 compounds screened, about 500 (0.14%) were called active. The shares of active, inactive and inconclusive entries below differ from those in the screen. The call rests on the fitted dose curve; in most records, active means well fitted activation curve with a large enough effect; inconclusive means small, poorly fitted or top-dose-only effect; inactive means no such curve, though single readings can be large or run the other way. No potency is given beside an inconclusive call; the fits are too rough.
# Assay: qHTS of alpha-syn Inhibitors; further: nearly all actives have a fitted effect of over 65% in size; on growth rescue (activation): % of control where 0% means no effect
# Settings: Yeast expressing alpha-synuclein, BacTiter-Glo, 24 h; Potency: growth rescue unless noted; growth rescue (activation): at 46.1 µM (top of the series) unless noted
# How it was run: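 Screening used galactose-induced yeast with toxic alpha-synuclein levels, exposed to compound for 24 hr at 30 deg C. Cell growth, read with BacTiter-Glo luminescence, gave the measured signal.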
# Potency means the concentration at half of the fitted maximal effect; tags describe the fitted curve by direction and shape.
Compound,Potency,growth rescue (activation)
O=C(NCCCN1CCOCC1)c1ccc(CSCc2cccc(Cl)c2)o1,"inconclusive [activator, single point]",
CCCCn1nnnc1C1(C)CCC(=O)N1c1ccc(N2CCOCC2)cc1 (centres undefined),,inactive: -7.57%
CCCCn1c(NC(=O)c2ccccc2)nc2ccccc21,active: 25.1 µM,
CCN(CC(O)CON=C1c2ccccc2-c2ccccc21)S(=O)(=O)c1ccc(C)cc1 (centres undefined),"inconclusive [activator, single point]",
Clc1ccc(Oc2nnnn2-c2ccccc2)cc1,,inactive: -3.05%
O=c1c2cc(Br)ccc2[nH]c(=S)n1Cc1ccccc1,"inconclusive [activator, single point]",
COC(=O)C1=C(C)N(Cc2ccccc2)C(=NCC(C)C)N[C@H]1c1cccc(C(F)(F)F)c1,"inconclusive [activator, single point]",
COc1ccc(S(=O)(=O)Oc2ccc3cccc(N)c3c2)cc1,"inconclusive [activator, single point]",
Cc1ccc(NC(=O)c2cc(C)no2)cc1,"inconclusive [activator, single point]",
Clc1cccc(CNc2ccn3nc(-c4ccc(OCCN5CCOCC5)cc4)cc3n2)c1,"inconclusive [activator, single point]",
O=S(=O)(NCc1cc(-c2ccccc2Cl)no1)c1ccc(Cl)cc1,"inconclusive [activator, single point]",
CCOC(=O)c1ccc(NC(=S)N(CCN(C)C)C(C)c2ccncc2)cc1 (centres undefined),active: 28.2 µM,
COc1c([N+](=O)[O-])ccc(N)c1N,,inactive: -8.25%
CCn1c(C(=O)N2CCC(C(=O)NCCCSC3CCCCC3)CC2)cc2sccc21,"inconclusive [activator, single point]",
CC(=O)Nc1ccc(CNc2nc(NCC3CC3)nc3ccsc23)cc1,"inconclusive [activator, single point]",
O=C(CN1C(=O)COc2ccc(S(=O)(=O)N3CCCC3)cc21)N1CCN(c2cccc(C(F)(F)F)c2)CC1,"inconclusive [activator, single point]",
CCOC(=O)[C@]12CCCC=C1N(Cc1ccccc1)C(=O)[C@H](CC(=O)NCCCCc1ccccc1)C2,"inconclusive [activator, single point]",
COc1ccc(/C=N/NC(=O)c2cccnc2)cc1CSc1nc2ccccc2s1,,inactive: 0.0426%
CCC(C)NC(=O)C1c2ccccc2Oc2ccccc21 (centres undefined),"inconclusive [activator, single point]",
